Data: the supplement of paper PMC4604168 (melanoma cell lines)
The list shows a part of the results. Many values rest on one well or one pass, so single values are uncertain.

Tests used:
Assay in all cases: cell count relative to DMSO control; melanoma cells; higher = more viable cells
Conditions in all cases: library dose: standard library concentration; 72 h
A101D = test system: A101D
A2058 = test system: A2058
A375 = test system: A375
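Note: cells treated in 1,536-well plates, then fixed and DAPI-stained, with nuclei counted from automated high-throughput microscope images.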

Row | SMILES | cell count (A101D) | cell count (A2058) | cell count (A375)
1 | C[C@@H](Oc1cc(-c2cnn(C3CCNCC3)c2)cnc1N)c1c(Cl)ccc(F)c1Cl [Crizotinib] + CC(=O)c1c(C)c2cnc(Nc3ccc(N4CCNCC4)cn3)nc2n(C2CCCC2)c1=O [palbociclib] (first compound 1 µM, partner dose 0.2 µM) | 63.3% | 75.7% | 61.3%
2 | C[C@@H](Oc1cc(-c2cnn(C3CCNCC3)c2)cnc1N)c1c(Cl)ccc(F)c1Cl [Crizotinib] + CN(C)S(=O)(=O)c1ccc2c(c1)/C(=C/c1cc3c([nH]1)CCCC3)C(=O)N2 [SU6656] (first compound 1 µM, partner dose 2 µM) | 66.4% | 67.8% | 104%
3 | C=CCNC1=C2C[C@@H](C)C[C@H](OC)[C@H](O)[C@@H](C)/C=C(\C)[C@H](OC(N)=O)[C@@H](OC)/C=C\C=C(/C)C(=O)NC(=CC1=O)C2=O [Tanespimycin] + Cn1cncc1[C@@](N)(c1ccc(Cl)cc1)c1ccc2c(c1)c(-c1cccc(Cl)c1)cc(=O)n2C [tipifarnib] (first compound 0.01 µM, partner dose 0.05 µM) | 70.5% | 47.6% | 92.9%
4 | C=CCNC1=C2C[C@@H](C)C[C@H](OC)[C@H](O)[C@@H](C)/C=C(\C)[C@H](OC(N)=O)[C@@H](OC)/C=C\C=C(/C)C(=O)NC(=CC1=O)C2=O [Tanespimycin] + CC1(C)NC(=O)N(c2ccc([N+](=O)[O-])c(C(F)(F)F)c2)C1=O [nilutamide] (first compound 0.01 µM, partner dose 5 µM) | 72.3% | 107% | 88.1%
5 | CS(=O)(=O)CCNCc1ccc(-c2ccc3ncnc(Nc4ccc(OCc5cccc(F)c5)c(Cl)c4)c3c2)o1 [lapatinib] + CN(NC(=O)CC(=O)NN(C)C(=S)c1ccccc1)C(=S)c1ccccc1 [STA4783] (first compound 4 µM, partner dose 0.03 µM) | 50.4% | 6.59% | 139%
6 | CS(=O)(=O)CCNCc1ccc(-c2ccc3ncnc(Nc4ccc(OCc5cccc(F)c5)c(Cl)c4)c3c2)o1 [lapatinib] + CO[C@@H]1[C@H](N(C)C(=O)c2ccccc2)C[C@H]2O[C@]1(C)n1c3ccccc3c3c4c(c5c6ccccc6n2c5c31)C(=O)NC4 [Midostaurin] (first compound 4 µM, partner dose 0.4 µM) | 45.8% | 23.4% | 64.4%
7 | CN1CCN(c2ccc3nc(-c4c(N)c5c(F)cccc5[nH]c4=O)[nH]c3c2)CC1 [Dovitinib] + OCCn1cc(-c2cnc3nnn(Cc4ccc5ncccc5c4)c3n2)cn1 [PF04217903] (first compound 0.5 µM, partner dose 5 µM) | 54.6% | 22.2% | 54.5%
